In PubChem BioAssay AID1460 (National Center for Advancing Translational Sciences (NCATS), 2008):
In all, about 270,000 compounds went through this assay and about 5,800 (2.1%) were called active. The shares of active, inactive and inconclusive entries below differ from those in the screen. Calls follow the shape of the dose curve; as a rule, active = well fitted inhibition curve with a large enough effect; inconclusive = small, poorly fitted or top-dose-only effect; inactive = flat fitted curve, though single readings scatter. Potencies beside an inconclusive call are fits to weak or partial responses and may not hold up.

target: Microtubule-associated protein tau (Homo sapiens) (UniProt P10636); assay: qHTS for Inhibitors of Tau Fibril Formation, Thioflavin T Binding; details: recombinant tau K18 P301L (four-repeat tau fragment), heparin-induced fibrillization, ThT fluorescence; series mostly up to 57.4 µM; activity, negative = inhibition: at the top concentration; also: nearly all actives have a fitted effect of over 55% in size
Sequence of UniProt P10636 (P10636 whole entry, looked up, the tested form may be a part): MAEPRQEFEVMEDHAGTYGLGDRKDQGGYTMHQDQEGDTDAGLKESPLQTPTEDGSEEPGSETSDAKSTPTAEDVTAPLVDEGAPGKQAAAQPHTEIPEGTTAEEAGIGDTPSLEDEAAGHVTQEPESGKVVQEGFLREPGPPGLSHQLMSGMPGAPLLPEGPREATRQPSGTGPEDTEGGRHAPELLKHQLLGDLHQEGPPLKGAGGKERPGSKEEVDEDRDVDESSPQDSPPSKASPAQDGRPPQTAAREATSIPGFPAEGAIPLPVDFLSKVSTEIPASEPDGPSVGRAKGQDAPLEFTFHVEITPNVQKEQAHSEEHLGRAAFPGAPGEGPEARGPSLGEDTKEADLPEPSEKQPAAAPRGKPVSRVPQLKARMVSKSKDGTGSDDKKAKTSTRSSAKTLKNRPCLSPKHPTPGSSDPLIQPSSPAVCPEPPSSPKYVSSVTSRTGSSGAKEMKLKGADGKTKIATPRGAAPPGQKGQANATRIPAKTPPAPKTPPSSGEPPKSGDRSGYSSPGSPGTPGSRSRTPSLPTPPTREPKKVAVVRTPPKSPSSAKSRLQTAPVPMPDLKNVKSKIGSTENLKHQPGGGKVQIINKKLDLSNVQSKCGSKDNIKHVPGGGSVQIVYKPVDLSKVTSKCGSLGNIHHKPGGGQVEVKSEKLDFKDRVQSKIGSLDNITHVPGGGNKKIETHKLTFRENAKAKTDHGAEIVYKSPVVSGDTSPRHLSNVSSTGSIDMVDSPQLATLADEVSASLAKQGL
Summary of the method: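 Tau K18 P301L fragment (15 uM unlabeled plus 0.24 uM Alexa 594-labeled) in 100 mM sodium acetate pH 7 with compound, fibrillization induced by 20 uM heparin for 6 hr at 37 C. Thioflavin T (30 uM) added, fluorescence read after 1 hr (ex 450, em 510 nm).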
% is scaled to controls: 0 for no effect and ±100 for the full control effect; potency is read from the fitted curve at half-maximal effect; tags tell the direction and shape of the fitted curve.

Structure (SMILES) | activity, negative = inhibition | Potency
Cc1cc(NC(=O)CSc2nncn2-c2ccccc2)no1 | inactive: -10.4% | 
Fc1cccc(Cl)c1CSc1nnc(COc2cccc3cccnc23)o1 |  | inconclusive: 10 µM [inhibitor, partial curve, poor fit]
Cc1nc(-c2ccc(NC(=O)/C=C\C(=O)O)cc2)cs1 | inactive: -15.4% | 
COc1cccc(C2C3=C(CC(C)(C)CC3=O)OC(N)=C2[N+](=O)[O-])c1 (stereo not drawn) |  | inconclusive: 25.1 µM [inhibitor, single point]
C=CCN=C(NC#N)SCc1ccccc1Cl | inactive: -11.2% | 
COc1ccc(Nc2cc(C(=O)NCc3ccco3)c3ccccc3n2)c(OC)c1 |  | inconclusive: 14.1 µM [inhibitor, partial curve]
COc1ccc(-c2cc(C(F)(F)F)nc(SCC(=O)N(C)Cc3ccccc3)n2)cc1 |  | inconclusive: 15.8 µM [inhibitor, partial curve, poor fit]
COc1ccc(CN=C(Nc2ccccc2)SC2CC(=O)NC2=O)cc1 (stereo not drawn) |  | active: 10 µM
CCOc1ccc(NC(=O)CC(NCc2ccccn2)C(=O)O)cc1 (stereo not drawn) |  | inconclusive: 39.8 µM [inhibitor, single point]
N#CC1=C(N)N2C(=C(C#N)C1c1ccc(Br)cc1)Nc1ccccc12 (stereo not drawn) |  | inconclusive: 20 µM [inhibitor, partial curve]
Cc1cc(C)n(C(=O)c2ccc(Cn3nc(C)c(Br)c3C)o2)n1 | inactive: -7.89% | 
CC1(C)COC(c2cc([N+](=O)[O-])ccc2Cl)=N1 | inactive: -8.59% | 
COC(=O)c1cc(C)sc1NC(=O)CC1Nc2ccccc2NC1=O (stereo not drawn) |  | inconclusive: 12.6 µM [inhibitor, partial curve]
Cc1cccc(NC(=O)c2ccc(Cn3nc(N4CCN(c5ccccc5)CC4)ccc3=O)o2)c1C |  | inconclusive: 14.1 µM [inhibitor, partial curve]
Cn1c(N)c(C(=O)COC(=O)c2ccc3c(c2)C(=O)N(c2ccc(Cl)cc2)C3=O)c(=O)n(C)c1=O |  | inconclusive: 12.6 µM [inhibitor, partial curve]
N#Cc1cc(-c2ccccc2)nc(NN)n1 |  | inconclusive: 10 µM [inhibitor, partial curve]
CC(C1CCCC(=O)C1)[N+](=O)[O-] (stereo not drawn) | inactive: -9.52% | 
CC(C)c1ccc(C2NC(=O)NC3=C2CCc2ccccc23)cc1 (stereo not drawn) |  | inconclusive: 28.2 µM [inhibitor, partial curve]
COc1cc(OC)c2c(C)c(CC(=O)NCc3ccccc3OC)c(=O)oc2c1 | inactive: -4.71% | 
CCOc1ccc(NC(=O)N2CCN(C(=O)c3nsc4ccccc34)CC2)cc1 |  | inconclusive: 25.1 µM [inhibitor, partial curve, poor fit]
Cc1ccc(NS(=O)(=O)c2cccc(C(=O)NCC3(N(C)C)CCCCC3)c2)cc1 | inactive: -1.61% | 
CCc1ccc(-c2[nH]nc3nc(-c4cc(OC)ccc4OC)cc(C(=O)O)c23)cc1 |  | inconclusive: 11.2 µM [inhibitor, partial curve, poor fit]
CC1(C)Oc2ccc3ccc(=O)oc3c2/C(=C/Nc2cccc(O)c2)C1=O |  | inconclusive: 5.01 µM [inhibitor, partial curve]
CCCOc1ccc(C(=O)C(CCC(CNCC)C(=O)c2ccc(OCCC)cc2)CNCC)cc1 (stereo not drawn) |  | inconclusive: 35.5 µM [inhibitor, single point]
CCc1ccc(C(=O)/C=C/c2ccc([N+](=O)[O-])o2)cc1 |  | active: 8.91 µM

Structure (SMILES) | activity, negative = inhibition | Potency
Cc1ccc(NC(=O)c2cn(CCC#N)nc2-c2cccs2)c([N+](=O)[O-])c1 | inactive: 3.21% | 
Cc1nn(-c2ccccc2)c(N)c1N=Nc1ccc(Cl)cc1 |  | active: 7.94 µM
CC(C)c1nnc(NC(=O)c2cc3cc(Br)ccc3oc2=O)s1 |  | inconclusive: 12.6 µM [inhibitor, partial curve]
Cc1cc(=O)n(Cc2ccc(Br)cc2F)c2c1c(C)nn2-c1ccccc1 | inactive: 8.12% | 
ONc1cccnc1-n1nc(C(F)(F)F)cc1C(F)(F)F |  | inconclusive: 31.6 µM [inhibitor, partial curve]
Cc1cnccc1CNC(=O)CC1C(=O)NCCN1CC(C)(C)C (stereo not drawn) |  | inconclusive: 8.91 µM [inhibitor, partial curve, poor fit]
CCSc1nc2sc3c(c2c(=O)n1-c1ccc(C)c(Cl)c1)CCN(C(C)=O)C3 |  | inconclusive: 8.91 µM [inhibitor, partial curve]
N#CC1=C(N)Oc2n[nH]c(-c3cccs3)c2C1c1ccncc1 (stereo not drawn) |  | inconclusive: 39.8 µM [inhibitor, single point]
COc1ccc(N/N=C(C)/C(=N/O)C(=O)Nc2ccccc2)cc1 |  | inconclusive: 15.8 µM [inhibitor, single point]
CCCOc1ccc(/C=C2\SC(=S)N(CC3CCCO3)C2=O)cc1 (stereo not drawn) |  | inconclusive: 12.6 µM [inhibitor, partial curve]
COc1ccc(/C=C/C(=O)Nc2ccc3nc4n(c(=O)c3c2)CCCC4)cc1 |  | inconclusive: 1.12 µM [inhibitor, full curve, poor fit]
O=C1CC(CC(=O)N/N=C/c2ccccc2[N+](=O)[O-])=NN1 |  | inconclusive: 0.631 µM [inhibitor, full curve]
S=c1nc(-c2cc(Cl)cc(Cl)c2)[nH][nH]1 | inactive: -8.38% | 
COc1ccc(NC(=O)C(NCC(C)C)c2ccccc2)cc1Cl (stereo not drawn) | inactive: -2.53% | 
O=[N+]([O-])c1ccc(Sc2cc[n+]([O-])c3ccccc23)c([N+](=O)[O-])c1 |  | inconclusive: 14.1 µM [inhibitor, partial curve]
CC(C)(C)c1ccccc1OCCCCN1CCCC1 | inactive: -4.3% | 
Cc1nc(N2CCOCC2)c2cc(-c3ccccc3)sc2n1 | inactive: -20.1% | 
Cc1ccc2occ(C3NC(C(=O)O)CS3)c(=O)c2c1 (stereo not drawn) |  | inconclusive: 22.4 µM [inhibitor, partial curve]
CCOC(=O)Cn1c(=O)oc2cc(S(=O)(=O)Nc3ccccc3F)ccc21 | inactive: -4.24% | 
COc1cccc(NC(=O)Cn2c(=O)oc3ccccc32)c1 | inactive: -14.1% | 
Cc1ccc(C(C)C)cc1OCCCCN1CCCC1 | inactive: -8.6% | 
Cc1nn(-c2ccccc2)c(C)c1C=O | inactive: -6.86% | 
CCn1c(C)c(C)c2cc(C(=O)NCCc3cc(OC)ccc3OC)ccc21 |  | inconclusive: 15.8 µM [inhibitor, partial curve]
O=C(Nc1cccc(Cl)c1N1CCCCC1)c1ccc(N2CCOCC2)c([N+](=O)[O-])c1 | inactive: -3.24% | 
Cc1ccc(S(=O)(=O)N2CCN(c3ccc([N+](=O)[O-])c(NCCN4CCOCC4)c3)CC2)cc1 |  | inconclusive: 5.62 µM [inhibitor, partial curve]

Structure (SMILES) | activity, negative = inhibition | Potency
CSCCC(NC(=O)c1cccc(C)c1)C(=O)O (stereo not drawn) | inactive: 8.58% | 
C=CCN1C(=O)C(CC(=O)O)SC1=Nc1ccc(N=Nc2ccccc2)cc1 (stereo not drawn) |  | active: 11.2 µM
O=C(/C=C/C=C/c1ccccc1)c1ccco1 |  | inconclusive: 17.8 µM [inhibitor, partial curve]
CC(C)Nc1nnc(SCC(=O)Nc2ccc3c(c2)C(=O)c2ccccc2C3=O)s1 |  | active: 10 µM
O=C(NCCc1ccccc1)C1CCN(C(=O)c2sccc2-n2cccc2)CC1 |  | inconclusive: 31.6 µM [inhibitor, single point]
CCOc1ccccc1N1CCN(c2nc3ccccc3nc2C(C#N)C(=O)OC)CC1 (stereo not drawn) |  | inconclusive: 4.47 µM [inhibitor, full curve]
N#CC1=C(S)N(c2ccc(F)cc2)C2(CCCCC2)NC1=O |  | active: 31.6 µM
CCOC(=O)C1CCN(S(=O)(=O)Cc2ccc(Cl)cc2)CC1 |  | inconclusive: 10 µM [inhibitor, partial curve]
Cc1nn(-c2ccccc2)c(C)c1/C=N/NC(=O)CSc1nnc(SCc2cccc3ccccc23)s1 | inactive: -5.42% | 
COc1ccc(S(=O)(=O)N2CCCCC2)cc1NCC(=O)Nc1ccc(C)cc1 |  | inconclusive: 39.8 µM [inhibitor, single point]
CCn1c(COc2ccccc2)nnc1SCC(=O)Nc1cc(C)ccc1OC |  | inconclusive: 7.08 µM [inhibitor, partial curve]
Cc1cc(C)n(-c2ccc(C(=O)OCc3ccccc3)cc2)n1 |  | inconclusive: 31.6 µM [inhibitor, single point]
CCOC(=O)c1c(-c2cccc3ccccc23)csc1NC(=O)C1C2CCC(O2)C1C(=O)O (stereo not drawn) | inactive: -17% | 
C[C@]12CCC(=O)C=C1CCC1C2C(=O)C[C@]2(C)C1CC[C@]2(O)C(=O)CO (stereo partly drawn) | inactive: -3.31% | 
CCc1nnc2c3ccccc3nc(N3CCN(c4cc(Cl)ccc4C)CC3)n12 | inactive: -5.81% | 
C=C(C)CSc1nc2sc3c(c2c(=O)n1C1CCCCC1)CCN(C)C3 |  | inconclusive: 11.2 µM [inhibitor, partial curve]
COC(=O)C1=C(C)NC2=C(C(=O)CCC2)C1c1ccc(-c2ccsc2C(=O)OC)o1 (stereo not drawn) |  | inconclusive: 39.8 µM [inhibitor, single point]
CCOC(=O)CCCNC(=O)N1CCc2nc(COc3ccccc3)c3c(c2C1)CO[C@@H](C)C3 | inactive: -0.585% [at 11.5 µM] | 
Cc1cccc(N2CCN(C(=O)CCCSc3nc4ccccc4[nH]3)CC2)c1C |  | inconclusive: 7.94 µM [inhibitor, partial curve]
COc1ccc(Oc2cnc3ccccc3n2)cc1 | inactive: -5.68% | 
CC(=O)Nc1ccc2nc(SCCOc3ccccc3Cl)sc2c1 |  | inconclusive: 1 µM [inhibitor, full curve]
CC1(C)C(=O)Nc2ccccc2N1C(=O)COc1ncnc2c(Cl)cc(Cl)cc12 |  | inconclusive: 28.2 µM [inhibitor, partial curve]
Oc1ccc2ccccc2c1/C=N/Nc1ccccc1 |  | active: 17.8 µM
